Experimental data taken from PubChem BioAssay AID504832 (National Center for Advancing Translational Sciences (NCATS), 2011).
Hit rate of the full screen: of about 310,000 compounds, about 18,000 (5.8%) were called active. The inconclusive results got no clear call from the source; some entries with a clear call stand among them for comparison. Calls follow the shape of the dose curve; as a rule, active = well fitted inhibition curve with a large enough effect; inconclusive = small, poorly fitted or top-dose-only effect, or another doubt; inactive = no such curve, though single readings can be large or run the other way. Potencies of inconclusive entries are left out as doubtful fits.

experiment: Primary qHTS for delayed death inhibitors of the malarial parasite plastid, 48 hour incubation; conditions: P. falciparum luciferase growth in erythrocytes; series mostly up to 28.7 µM; activity change, negative = inhibition: at the top concentration
In short: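 Here the parasites carry a stable luciferase gene and grow inside erythrocytes in Albumax-based RPMI medium with compound for one erythrocytic cycle. Activity is scored as loss of luminescent signal.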
% is scaled to controls: 0 for no effect and ±100 for the full control effect; potency is read from the fitted curve at half-maximal effect; tags tell the direction and shape of the fitted curve.

| Structure (SMILES) | activity change, negative = inhibition | Potency |
| --- | --- | --- |
| CCc1ccc(OC(=O)c2ccn(CC)n2)cc1 | inactive: 4.75% | – |
| COc1ccc(C(C)(C)C)cc1NC(=O)C1C2C=CC(C2)C1C(=O)O (stereo not given) | – | inconclusive [inhibitor, full curve, poor fit] |
| O=C(Cc1cccs1)Nc1ccc(-c2nnn(CC(=O)N3CCOCC3)n2)cc1 | inactive: 7.87% | – |
| COc1ccccc1NC(=O)C(=O)N/N=C/c1ccc([N+](=O)[O-])s1 | – | active: 2.62 µM |
| CCOC(=O)c1c(-c2ccc(Cl)cc2)cn2ccccc12 | – | inconclusive [inhibitor, single point] |
| COc1ccc(NS(=O)(=O)c2cc(C)ccc2NC(=O)c2cc(C)oc2C)cc1 | – | inconclusive [inhibitor, single point] |
| Cc1ccc(Cl)cc1N(CC(=O)NCc1ccccc1)S(C)(=O)=O | inactive: 5.13% | – |
| COCCn1c(-c2ccc(OC)cc2)cnc1SCC(=O)Nc1ccc(OC)cc1OC | – | inconclusive [inhibitor, partial curve] |
| C[C@H]1CN=C(Nc2ccccc2)N1CC1CCCCCC1 | – | inconclusive [inhibitor, full curve, poor fit] |
| COc1ccc(NC(=O)CCN2CCN(Cc3ccccc3)CC2)c(OC)c1 | – | inconclusive [inhibitor, full curve] |
| O=C(NCc1ccncc1)c1ccccc1Nc1ccc(SC(F)F)cc1 | – | inconclusive [inhibitor, partial curve] |
| COc1ccc(N/N=C(\C#N)C(=N)N2CCCCC2)cc1 | inactive: 92.9% | – |
| CCC(C)c1ccccc1OCCCCN1CCCC1 (stereo not given) | – | inconclusive [inhibitor, partial curve, poor fit] |
| COc1ccc(N(C(=O)c2snc(C(N)=O)c2N)C(C(=O)NC2CCCCC2)c2ccc(C)o2)cc1 (stereo not given) | – | active: 8.28 µM |
| CCCCN1C(=O)Nc2ccccc2S1=O (stereo not given) | inactive: 12.6% | – |
| CC(C)CCNC(=O)CSc1nc2ccsc2c(=O)n1NC(=O)c1ccccc1 | inactive: 57.9% | – |
| CC(C)(C)n1nnnc1C(c1cccs1)N1CCN(Cc2ccccc2)CC1 (stereo not given) | – | inconclusive [inhibitor, partial curve, poor fit] |
| c1ccc(C(c2ccccc2)N2CCN(Cc3nnnn3C3CCCC3)CC2)cc1 | – | inconclusive [inhibitor, single point] |
| CC(C)COc1ccc(C(=O)N/C(=C/c2cccc([N+](=O)[O-])c2)C(=O)O)cc1 | – | inconclusive [inhibitor, full curve, poor fit] |
| O=C(COc1ccccc1)Nc1ccc(N2CCN(C(=O)c3ccco3)CC2)cc1 | – | inconclusive [inhibitor, single point] |
| COc1ccc(N2CCN(C(=O)C3CCCN(S(=O)(=O)c4ccc(C)cc4)C3)CC2)cc1 (stereo not given) | – | inconclusive [inhibitor, partial curve, poor fit] |
| CC(C)C(C)(C#N)NC(=O)CSc1nnc(-c2ccncc2)n1Cc1ccccc1 (stereo not given) | – | inconclusive [inhibitor, partial curve, poor fit] |
| COc1cc(/C=N/NC(=O)c2cccs2)ccc1OCc1ccccc1 | – | inconclusive [inhibitor, partial curve] |
| CC(NC(=O)c1ccccc1)C(=O)N/N=C/c1ccco1 (stereo not given) | inactive: 3.43% | – |

| Structure (SMILES) | activity change, negative = inhibition | Potency |
| --- | --- | --- |
| Cc1ccc(N(Cc2cc3cc(C)ccc3[nH]c2=O)S(=O)(=O)c2ccccc2)cc1 | – | inconclusive [inhibitor, partial curve] |
| COc1ccccc1N1CCN(c2nc(-c3ccccc3)cc(C(F)(F)F)n2)CC1 | inactive: 6.31% | – |
| COc1ccccc1/C=N/NC(=O)c1ccc(-c2ccccc2)cc1 | inactive: 1.4% | – |
| O=C(CN(Cc1ccc(F)cc1)C(=O)CCC(=O)Nc1ccccn1)NCc1ccc(F)cc1 | inactive: -4.85% | – |
| C=Cn1ccnc1P(=S)(c1cc(N(CC)CC)ns1)c1nccn1C=C | – | inconclusive [inhibitor, partial curve, poor fit] |
| CCOC(=O)c1cccc(NC(=O)CCc2nnc3ccc(N4CCOCC4)nn23)c1 | – | inconclusive [inhibitor, single point] |
| COc1ccc(Nc2cc(C)nc3c(C)cccc23)cc1OC | – | inconclusive [inhibitor, single point] |
| CCOC(=O)C1CCCN(C2CC(=O)N(c3ccccc3)C2=O)C1 (stereo not given) | inactive: 5.49% | – |
| COc1ccccc1/C=C/C(=O)OCC(=O)Nc1ccc2c(c1)OCCO2 | – | inconclusive [inhibitor, single point] |
| Cc1ccc(C)c(N(C(=O)Cn2nnc(-c3cccs3)n2)C(C(=O)NC2CCCC2)c2ccncc2)c1 (stereo not given) | – | active: 4.65 µM |
| Cc1ccc(C)c(C(=O)COC(=O)c2cc([N+](=O)[O-])ccc2NCCO)c1 | inactive: 12.6% | – |
| CCOc1ccccc1/C=C/c1cc(C(=O)O)c2ccccc2n1 | inactive: 25.6% | – |
| Cc1ccc(NC(=O)Cc2sc(C)nc2-c2ccc(C)cc2)cc1 | inactive: -5.56% | – |
| CCN(CC)CCN(C(=O)C1=COCCO1)c1nc2cc(C)cc(C)c2s1 | – | inconclusive [inhibitor, single point] |
| COc1ccccc1CC(=O)Nc1cc(OC)c(NC(=O)c2ccccc2)cc1OC | – | inconclusive [inhibitor, single point] |
| CC(C)(C)C(=O)c1cn(CC(=O)NCc2ccco2)c2ccccc12 | inactive: 54.8% | – |
| O=C(CNCc1ccc(F)cc1)Nc1ccccc1-c1ccccc1 | – | inconclusive [inhibitor, partial curve, poor fit] |
| OCCSc1nc(-c2ccccc2)nc2ccc(F)cc12 | inactive: 22.4% | – |
| COC(=O)c1c(C)[nH]c(C(=O)COc2ccc3ccc(=O)oc3c2)c1C | – | inconclusive [inhibitor, single point] |
| Cc1ccc(-c2cc(C(=O)Nc3ccc(S(=O)(=O)N4CC(C)OC(C)C4)cc3)[nH]n2)c(O)c1 (stereo not given) | – | active: 0.262 µM |
| CCCC(C)NC(=O)C1CCN(C(=O)C2CC(=O)N(c3ccc(C)cc3)C2)CC1 (stereo not given) | inactive: 13.8% | – |
| Cc1ccc(Cn2nnc3c(=O)[nH]c(C4CCCN(C(=O)Nc5ccc(F)cc5F)C4)nc32)cc1 (stereo not given) | – | inconclusive [inhibitor, single point] |
| O=C(NCc1ccccc1)C(c1ccccc1)N(Cc1ccc2c(c1)OCO2)C(=O)Cc1cccs1 (stereo not given) | – | inconclusive [inhibitor, single point] |
| CN1c2ccc(C=O)c3c(C=O)ccc(c23)N(C)C1(C)C | – | active: 11.7 µM |

| Structure (SMILES) | activity change, negative = inhibition | Potency |
| --- | --- | --- |
| Cc1cc(C)cc(N2C(=O)CN(Cc3ccccc3)C2=S)c1 | – | active: 14.7 µM |
| COc1ccccc1C1CCN(c2cc(O)ccc2[N+](=O)[O-])CC1 | – | inconclusive [inhibitor, partial curve, poor fit] |
| CCC(=O)N1CCc2cc(Br)cc(S(=O)(=O)N3CCN(C(=O)c4ccco4)CC3)c21 | – | inconclusive [inhibitor, single point] |
| Cc1cc(C)nc(N2CCCC(C(=O)NC(C)CCc3ccco3)C2)n1 (stereo not given) | – | inconclusive [inhibitor, single point] |
| Cc1c(OC(C)C(=O)NCC2CCC(C(=O)O)CC2)ccc2c(-c3ccccc3)cc(=O)oc12 (stereo not given) | – | inconclusive [inhibitor, partial curve, poor fit] |
| COc1cc2c(cc1OC)C1=NC(=O)CN1C(SCc1ccccc1C)=N2 | – | inconclusive [inhibitor, partial curve] |
| Cc1c(NC(=O)COc2cccc3c2OC(C)(C)C3)c(=O)n(-c2ccccc2)n1C | inactive: -1.65% | – |
| CS(=O)(=O)N(CC(N)=O)c1ccc(F)c(Cl)c1 | inactive: 1.62% | – |
| Cc1ccc(-n2nc3c(=O)n(CCCC(=O)NCC(C)c4ccccc4)nc(C)c3c2C)cc1 (stereo not given) | – | inconclusive [inhibitor, partial curve, poor fit] |
| O=C(NCC1CCCO1)c1cccc(S(=O)(=O)N2CCCCC2)c1 (stereo not given) | inactive: 28.3% | – |
| NC(=S)c1cn(C2OC(CO)C(O)C2O)c2ncnc(N)c12 (stereo not given) | – | active: 1.31 µM |
| O=C(NCCCN1CCCC1=O)c1cccc(S(=O)(=O)Nc2ccc(F)cc2)c1 | – | inconclusive [inhibitor, single point] |
| CCOc1ccccc1-c1nc(-c2ccc(NC(=O)Cc3ccc(OC)cc3)cc2)no1 | – | inconclusive [inhibitor, full curve] |
| Cc1ccc2[nH]c3c(c2c1)CN(C(=O)CN1CCSCC1)CC3 | – | inconclusive [inhibitor, single point] |
| COC(=O)C1C(=O)C2=C(CC1C)NC(=O)CC2c1ccc(F)cc1 (stereo not given) | – | active: 14.7 µM |
| CC(C)c1cc(C(=O)NC2CCCCC2)no1 | inactive: 259% | – |
| NNc1nnnc2c1sc1nc(N3CCOCC3)c3c(c12)CCCC3 | – | inconclusive [inhibitor, single point] |
| COCCCNC(=O)/C(C#N)=C/c1c(N2CCN(c3cccc(Cl)c3)CC2)nc2c(C)cccn2c1=O | – | inconclusive [inhibitor, partial curve] |
| O=C(N/N=C/C=C/c1ccccc1[N+](=O)[O-])c1cc(-c2cccnc2)nc2ccccc12 | – | inconclusive [inhibitor, partial curve, poor fit] |
| Cc1ccc(NC2=CC(=O)CC(c3ccccc3)C2)cc1 (stereo not given) | – | inconclusive [inhibitor, partial curve] |
| COc1ccc(C(CCN2CCCC(C)C2)c2c(OC)cc(OC)c3c(C)cc(=O)oc23)cc1 (stereo not given) | – | active: 2.94 µM |
| COc1cc(NCc2ccccc2O)c2ncccc2c1 | – | inconclusive [inhibitor, partial curve, poor fit] |
